The record followed here is PubChem BioAssay AID1963576 (National Center for Advancing Translational Sciences (NCATS), 2024).

About 60 (0.1%) of roughly 46,000 compounds were called active. Another 3% or so got no clear call; they are omitted. Calls follow the shape of the dose curve; as a rule, active = well fitted inhibition curve with a large enough effect; inconclusive = small, poorly fitted or top-dose-only effect; inactive = no such curve, though single readings can be large or run the other way. The list shows a part of the results.

The experiment in a line: Primary qHTS assay for Inhibitors of ovarian cancer metastasis using an organotypic tumor microenvironment (TME) model. Also: nearly all actives have a fitted effect of over 65% in size.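 As to activity change, negative = inhibition: plate controls were DMSO wells for no effect and tomatine positive control wells for full effect.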 The conditions noted are these: SKOV3ip1-GFP adhesion/invasion on 3D omental model, fluorescence; series mostly up to 45.8 µM; activity change, negative = inhibition: at the top concentration. In a few lines: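 Adhesion/invasion was scored as fixed GFP-labeled SKOV3ip1 cell counts (488/509 nm), normalized to DMSO and tomatine controls. Cancer cells in serum-free medium, with four compound doses (0.36-46 umol/L), sat 2 hr at RT then 16 hr at 37 C on a 48 hr fibroblast/mesothelial/ECM culture.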
For `COc1ccc(CNC(=O)c2cccc(-n3cnc4cccnc43)c2C)cc1`, the “activity change, negative = inhibition” value is inactive: 6.37%.

Consider `CCOc1ccc(NC(=O)Cn2ccn(-c3ccc(F)c(F)c3)c(=O)c2=O)cc1`, for which the outcome was inactive.

In the case of `COc1cc(C(=O)N2CCN(CCc3ccccn3)CC2)cc(OC)c1OC`, the outcome was inactive.

In the case of `COc1cc(OC)cc(C(=O)NCC(c2cccs2)S(=O)(=O)c2ccc(F)c(C)c2)c1` (stereo not given), the “activity change, negative = inhibition” value was inactive: -4.45%. Same read-out and setting: as for `CCC(C)NC(=O)c1ccc2nc(Cc3ccc(OC)cc3)oc2c1` (stereo not given), the figure is inactive: 2.64%. As to `COc1ccc(NC(=O)CSCc2cnn(-c3ccccc3)c2-n2cccc2)cc1`, the compound was called inactive.

For the compound `CCn1ccc2cc(S(=O)(=O)N3CCC(C(=O)NCCc4ccc(C)cc4)CC3)ccc21`, the outcome was inactive. For `NS(=O)(=O)c1ccc(NC(=O)c2ccc3c(c2)CCN3S(=O)(=O)c2ccccc2)cc1`, the “activity change, negative = inhibition” value is inactive: 6.46%.

With `Cc1ccc(N(CC(=O)Nc2cc(C)cc(C)c2)S(=O)(=O)c2cccc3nonc23)cc1`, the “activity change, negative = inhibition” value was inactive: 0.132%.

For the compound `COc1ccccc1NC(=O)CN1C(=O)C2(SCC(=O)N2c2ccc(C)c(C)c2)c2ccccc21` (stereo not given), the compound was called inactive. As to `Cc1cc(C)cc(NC(=O)Cn2c(=O)c3ccccc3n3nncc23)c1`, the “activity change, negative = inhibition” value was inactive: 4.87%.

As for `Cc1ccc2c(=O)cc(C(=O)Nc3ccc(S(=O)(=O)N4CCCCCC4)cc3)oc2c1C`, the compound was called inactive. On to `CCc1ccc(CNC(=O)CN2C(=O)c3cccnc3Oc3ccc(C)cc32)cc1`, for which the “activity change, negative = inhibition” value was inactive: 2.03%.

For `CCOC(=O)c1ccccc1NC(=O)c1sc2nc3n(c(=O)c2c1C)CCCC3`, the “activity change, negative = inhibition” value was inactive: 5.93%.

For the compound `CCCCOc1ccc(CNC(=O)CCCN2C(=O)CSc3c2c(C)nn3-c2ccccc2)cc1`, the result was inactive. In the case of `Cc1c(C)n(C)c2ccc(C(=O)N3CCN(c4ccccc4)CC3)cc12`, the “activity change, negative = inhibition” value was inactive: -3.33%. Same read-out and setting: the result for `Cc1c(Cl)cccc1NC(=O)C(C)n1nnc2sc3c(c2c1=O)CCCC3` (stereo not given) reads inactive: -15%; that for `CSc1ncc(Cl)c(C(=O)N(Cc2ccc(N(C)C)cc2)Cc2ccco2)n1`, inactive: 0.627%. Still for that read-out and setting: as for `CC(CC(=O)Nc1ccc(Br)cc1F)S(=O)(=O)c1ccc2c(c1)NC(=O)CO2` (stereo not given), the figure is inactive: -3.19%. Take `CC(C)c1ccc(C2N=C(N)Nc3nc4ccccc4n32)cc1` (stereo not given): the result was inactive.

As to `CCc1ccc(Cc2cnc(NC(=O)c3ccc4c(c3)CC(c3ccccc3)OC4=O)s2)cc1` (stereo not given), the “activity change, negative = inhibition” value is inactive: -4.44%. Still for that read-out and setting: as for `Cc1cccc(C2CC(=O)Oc3c2c(=O)n(C)c2ccccc32)c1` (stereo not given), the figure is inactive: 1.88%. On the same count and under the same terms, the result for `CCOC(=O)C1CCN(C(=O)C2CCN(C3=NS(=O)(=O)C(c4ccc(C)c(C)c4)=C3C)CC2)CC1` reads inactive: 6.84%; that for `Cc1ccc(CNC(=O)Cn2cc(C(=O)c3ccc(F)cc3)c(=O)c3ccc(C)nc32)cc1`, inactive: 3.56%; that for `COc1ccc(CNC(=O)c2cc3c(s2)-c2ccccc2OC3)cc1`, inactive: -0.146%. Still for that read-out and setting: as for `CCC(C)NC(=O)C(=O)Nc1c2c(nn1-c1ccccc1)CS(=O)(=O)C2` (stereo not given), the figure is inactive: 17.1%. With `CC(C)CCNC(=O)C1CCC(Cn2c(=O)c3sccc3n(CC(=O)NC(C)C)c2=O)CC1` (stereo not given), the “activity change, negative = inhibition” value was inactive: -19.1%. In the case of `Cc1ccc(-n2c(=O)c3oc4ccccc4c3n(Cc3ccccc3F)c2=O)cc1C`, the compound was called inactive.

For `O=C(Cn1c(=O)n(-c2ccc(F)c(Cl)c2)c(=O)c2sc3ccccc3c21)NC1CCCC1`, the compound was called inactive. Still for that read-out and setting: as for `CCOc1ccc(CCNC(=O)C2COc3ccccc3C2)cc1OCC` (stereo not given), the entry is “inactive”. With `O=C(CN1C(=O)CCSc2ccccc21)Nc1ccccc1F`, the compound was classed as inactive. Same read-out and setting: as for `O=C(c1ccc2c(c1)N(Cc1ccc(Cl)cc1)C(=O)c1ccccc1S2(=O)=O)N1CCCCC1`, the entry is “inactive”. Regarding `CC1CN(C(=O)CCC(=O)NCc2ccc(F)cc2)c2cc(Cl)ccc2O1` (stereo not given), the “activity change, negative = inhibition” value was inactive: -0.111%. In the case of `COc1ccc(NC(=O)CSc2nc3c(oc4ccccc43)c(=O)n2-c2ccc(C)c(C)c2)cc1`, the “activity change, negative = inhibition” value is inactive: -5.74%. Same read-out and setting: the result for `COc1cc(OC)c(NC(=O)NCc2ccc3c(c2)CCN3C(=O)c2ccccc2)cc1Cl` reads inactive: 11.5%. On the same count and under the same terms, the result for `S=c1nc[nH]c2nc[nH]c12` reads inactive: 3.31%. Same read-out and setting: as for `Cc1ccc(S(=O)(=O)c2nc(-c3cccc(C)c3)oc2N2CCN(c3ccccc3)CC2)cc1`, the figure is inactive: -6.83%; as for `COc1ccc2c(c1)CCc1c(C(=O)Nc3c(C)nn(Cc4ccc(Cl)c(Cl)c4)c3C)noc1-2`, inactive: 0.0448%. For the compound `Cc1ccc(CNC(=O)c2ccc3c(=O)n(-c4ccccc4)c(=O)[nH]c3c2)cc1`, the “activity change, negative = inhibition” value is inactive: 2.67%.

In the case of `CCCSc1ncc(Cl)c(C(=O)Nc2nc3ccc(OCC)cc3s2)n1`, the “activity change, negative = inhibition” value was inactive: -2.49%. For `COC(=O)c1sc2cccc(F)c2c1S(=O)(=O)N1CCN(c2ccc(F)cc2)CC1`, the “activity change, negative = inhibition” value is inactive: -5.1%.

Consider `Cc1nc2nc(SCC(=O)NCCc3ccc(Cl)cc3)nn2c(C)c1Cc1ccccc1`, for which the “activity change, negative = inhibition” value was inactive: -3.3%. Still for that read-out and setting: the result for `CCOC(=O)CC1c2cc(OCC)c(OCC)cc2CCN1C(=O)Nc1cccc(Cl)c1` (stereo not given) reads inactive: 3.9%.

In the case of `Cc1cccn2c(=O)c3cc(C(=O)NCc4ccccc4)c(=N)n(CCOCCO)c3nc12`, the compound was called inactive.

Take `CC(=O)c1cc(C(=O)Nc2cc(C)cc(C)c2)c2ccccn12`: the “activity change, negative = inhibition” value was inactive: 6.01%. Regarding `COC(=O)C(CCSC)NC(=O)c1cc2c(n(-c3ccc(C)cc3)c1=O)CC(C)(C)CC2=O` (stereo not given), the “activity change, negative = inhibition” value is inactive: -12%. On the same count and under the same terms, the result for `Cc1ccc2c(c1)cc1c(=O)n(CC(=O)NC3CCCCC3)nc(C)n12` reads inactive: -15.6%.

Consider `CCc1ccccc1NC(=O)CSc1nc(-c2ccccc2OC)nc2c1Cc1c(CO)cnc(C)c1O2`, for which the “activity change, negative = inhibition” value is inactive: 2.32%. On to `CCC(=O)N1c2ccc(S(=O)(=O)N3CCC(C)CC3)cc2CC1C` (stereo not given), for which the “activity change, negative = inhibition” value is inactive: 3.68%. For `COc1ccc(CCNC(=O)CCCn2c(=O)c3ccccc3n(Cc3c(C)cc(C)cc3C)c2=O)cc1OC`, the outcome was inactive. As to `CCCCC(CC)CNC(=O)C1CCC(CNS(=O)(=O)c2cccc3nsnc23)CC1` (stereo not given), the “activity change, negative = inhibition” value is inactive: -2.43%.

As for `Cc1ccc(NC(=O)CSc2nc(=O)n(CCCN(C)C)c3c2CCC3)cc1F`, the compound was classed as inactive. As for `CCOC(=O)c1[nH]c(C)c(CCC(=O)NCc2ccccc2Cl)c1C`, the “activity change, negative = inhibition” value was inactive: -18.1%. Turning to `CNC(=O)c1ccc(Nc2nnc(-c3ccc(C)c(S(=O)(=O)N(C)C)c3)c3ccccc23)cc1`, the “activity change, negative = inhibition” value is inactive: 0.314%. Turning to `CCCc1ccc(S(=O)(=O)N2CCC(Oc3ccc(-n4cnnn4)cc3)CC2)cc1`, the “activity change, negative = inhibition” value was inactive: 7.14%. The same measure, in the same setting: the result for `CCC(=O)Nc1ccc(-c2nnc3c4ccccc4c(C)nn23)cc1` reads inactive: 1.86%; that for `O=C(NCc1ccccc1)c1ccc2c(c1)CCN2S(=O)(=O)c1ccccc1`, inactive: 9.82%.

For the compound `Cc1cccc(C)c1-n1ncc(C(=O)N2CCN(c3ccccn3)CC2)c1C1CCN(C(=O)OC(C)(C)C)CC1`, the “activity change, negative = inhibition” value was inactive: -7.48%. Same read-out and setting: as for `COc1cc(NC(=O)CSc2nc(-c3ccc(C)cc3)nc3c2Cc2ccccc2O3)cc(OC)c1`, the figure is inactive: -22.5%; as for `N#Cc1ccc(CSc2nc3c(c(=O)[nH]2)CCC3)cc1`, inactive: 5.57%.
